Measured values reported in article PMC7994375 (2021).

B1: Human Melanocortin-4 Receptor (MC4R) WT, NanoBiT constructs (MC4R WT-LgBiT; MC4R WT-SmBiT) [human] / Human Gαs-C-SmBiT [human] (parent complex)
chain 1: MVNSTHRGMHTSLHLWNRSSYRLHSNASESLGKGYSDGGCYEQLFVSPEVFVTLGVISLLENILVIVAIAKNKNLHSPMYFFICSLAVADMLVSVSNGSETIVITLLNSTDTDAQSFTVNIDNVIDSVICSSLLASICSLLSIAVDRYFTIFYALQYHNIMTVKRVGIIISCIWAACTVSGILFIIYSDSSAVIICLITMFFTMLALMASLYVHMFLMARLHIKRIAVLPGTGAIRQGANMKGAITLTILIGVFVVCWAPFFLHLIFYISCPQNPYCVCFMSHFNLYLILIMCNSIIDPLIYALRSQELRKTFKEIICCYPLGGLCDLSSRY
chain 2: MGCLGNSKTEDQRNEEKAQREANKKIEKQLQKDKQVYRATHRLLLLGAGESGKSTIVKQMRILHVNGFNGEGGEEDPQAARSNSDGEKATKVQDIKNNLKEAIETIVAAMSNLVPPVELANPENQFRVDYILSVMNVPDFDFPPEFYEHAKALWEDEGVRACYERSNEYQLIDCAQYFLDKIDVIKQADYVPSDQDLLRCRVLTSGIFETKFQVDKVNFHMFDVGGQRDERRKWIQCFNDVTAIIFVVASSSYNMVIREDNQTNRLQEALNLFKSIWNNRWLRTISVILFLNKQDLLAEKVLAGKSKIEDYFPEFARYTTPEDATPEPGEDPRVTRAKYFIRDEFLRISTASGDGRHYCYPHFTCAVDTENIRRVFNDCRDIIQRMHLRQYELL

Variants of: B1
Test: NanoBiT enzyme complementation assay; read off a plot

First: chain 1 V103I
Second: chain 1 T112M
The screen value of the first is higher: ~0.85 loge(mutant/WT) for the first, ~-0.5 loge(mutant/WT) for the second.

Compared with chain 1 S191T, chain 1 M200V is lower in screen value: ~0.65 loge(mutant/WT) for the first, ~-0.65 loge(mutant/WT) for the second.

Compared with chain 1 G34A, chain 1 G231S is lower in screen value: ~-0.2 loge(mutant/WT) for the first, ~-0.45 loge(mutant/WT) for the second.

First: chain 1 S30F
Second: chain 1 T232S
The screen value of the first is higher: ~-0.25 loge(mutant/WT) for the first, ~-0.8 loge(mutant/WT) for the second.

Compared with chain 1 L304F, chain 1 G238D is lower in screen value: ~0.1 loge(mutant/WT) for the first, ~-0.05 loge(mutant/WT) for the second.

Going from chain 1 C326R to chain 1 S295P, the screen value rises from ~-0.85 loge(mutant/WT) to ~-0.7 loge(mutant/WT).

Compared with chain 1 I251L, chain 1 T11A is lower in screen value: ~0.35 loge(mutant/WT) for the first, ~-0.5 loge(mutant/WT) for the second.

Compared with chain 1 R305S, chain 1 T53I is higher in screen value: ~-0.1 loge(mutant/WT) for the first, ~0.35 loge(mutant/WT) for the second.

Compared with chain 1 R236C, chain 1 L325F is higher in screen value: ~-1.5 loge(mutant/WT) for the first, ~-0.9 loge(mutant/WT) for the second.

For chain 1 N240S, the screen value was ~0.95 loge(mutant/WT).
